This note sets out measurements from publication PMC4429955.

Test [1] deals with T1, Pex11-Cub (S. cerevisiae) (UniProt Q12462).
T1 sequence: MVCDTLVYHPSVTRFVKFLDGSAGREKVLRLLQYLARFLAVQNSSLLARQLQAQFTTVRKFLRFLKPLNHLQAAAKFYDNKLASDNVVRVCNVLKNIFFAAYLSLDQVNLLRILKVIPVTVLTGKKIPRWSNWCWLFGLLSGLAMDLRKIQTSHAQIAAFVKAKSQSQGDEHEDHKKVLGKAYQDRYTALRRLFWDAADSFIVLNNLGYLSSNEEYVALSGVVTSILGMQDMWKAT
Kind of test: two-hybrid; split-ubiquitin membrane yeast two-hybrid (MYTH) in strain NMY51; baits with C-terminal Cub (pAMBV4), preys with N-terminal Nub (pPR3-N); growth on SD -Leu -Trp -Ade -His with 5-bromo-4-chloro-3-indolyl-β,D-galactopyranoside, 3-5 days at 30 °C; three independent experiments.

Test [2] addresses T1, Pex11-Cub (S. cerevisiae). Description: two-hybrid; MYTH, unpublished results (U.P.); homodimerization of Pex11.
Test [3] has as its target T2, Mdm10-Cub (S. cerevisiae) (UniProt P18409).
T2 sequence: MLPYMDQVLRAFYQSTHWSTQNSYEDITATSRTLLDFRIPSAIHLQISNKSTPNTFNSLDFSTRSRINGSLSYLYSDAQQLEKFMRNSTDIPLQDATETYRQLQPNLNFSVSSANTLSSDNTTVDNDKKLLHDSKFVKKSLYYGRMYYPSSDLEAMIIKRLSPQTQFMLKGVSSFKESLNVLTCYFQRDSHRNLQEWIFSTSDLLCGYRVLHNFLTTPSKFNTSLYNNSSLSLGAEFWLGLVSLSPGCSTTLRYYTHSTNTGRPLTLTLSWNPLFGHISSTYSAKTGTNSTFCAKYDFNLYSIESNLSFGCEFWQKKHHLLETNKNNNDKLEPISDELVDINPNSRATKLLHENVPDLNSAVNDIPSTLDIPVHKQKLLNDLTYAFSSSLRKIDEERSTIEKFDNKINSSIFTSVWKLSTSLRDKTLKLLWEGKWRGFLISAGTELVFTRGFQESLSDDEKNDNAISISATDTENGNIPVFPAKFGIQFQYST
Kind of test: two-hybrid; split-ubiquitin membrane yeast two-hybrid (MYTH) in strain NMY51; baits with C-terminal Cub (pAMBV4), preys with N-terminal Nub (pPR3-N); growth on SD -Leu -Trp -Ade -His with 5-bromo-4-chloro-3-indolyl-β,D-galactopyranoside, 3-5 days at 30 °C; three independent experiments.

The target of test [4] is T3, Mdm10 tagged at its C-terminus with the C-terminal part of Venus (VC) (S. cerevisiae) (UniProt P18409).
T3 sequence: T2 sequence
Kind of test: split reporter; BiFC with split Venus in S. cerevisiae BY4741; Pex11 with VN at its N-terminus, partners with VC at their C-termini, tags inserted into the genome; fluorescence microscopy.

These are yes or no findings as the source states them, for the method shown. For part of these data: Binding seen in cells or lysates may run through a third protein. For part of these data: Where a sequence is shown, tags or fusion partners need not be part of it. Some binding calls cover weakened binding; strength is not graded here.

B1: Nub-Mdm12 (protein, UniProt Q92328 1-271)
chain: MSFDINWSTLESDNRLNDLIRKHLNSYLQNTQLPSYVSNLRVLDFDLGKVGPAITLKEITDPLDEFYDSIREEADQETEENNDNKEDSEHICPDRTIANHEGPKDDFEAPVVMPSPNDIQFLLEVEYKGDLLVTIGADLVLNYPVEKFMTLPVKLSISDIGLHSLCIVACLSKQLFLSFLCDVSDPALDDNQTVLDPKGPILAATKPLERISIVRSMKIETEIGEQYQGQGSVLRSVGELEQFLFTIFKDFLRKELAWPSWINLDFNDGDE
For the molecule B1, in test [1], the binding result is recorded as “no binding”.

B2: Nub-Mdm10 (protein, UniProt P18409 1-493)
chain: T2 sequence
Turning to B2, the binding result in test [1] was “no binding”.

B3: Nub-Pex11 (protein, UniProt Q12462 1-236)
chain: T1 sequence
With B3, the binding entry is given as “binds” in test [2], “no binding” in test [3] and “binds” in test [1].

B4: Pex11 tagged at its N-terminus with the N-terminal part of Venus (VN) (protein, UniProt Q12462 1-236)
chain: T1 sequence
As for B4, the binding result in test [4] was “no binding”.
